The text below walks through data of PMC4336329 (PLoS ONE, 2015).

About 2,200 (0.71%) of roughly 310,000 compounds showed an effect of 50% or more. Effects have a minus sign here. The list shows a part of the results.

For the assay, the target named is human ether-à-go-go-related gene (hERG) potassium channel (human, UniProt Q12809). Kind of assay: primary screen, population patch clamp on CHO cells stably expressing hERG.
Sequence of human ether-à-go-go-related gene (hERG) potassium channel (Q12809 whole entry, looked up): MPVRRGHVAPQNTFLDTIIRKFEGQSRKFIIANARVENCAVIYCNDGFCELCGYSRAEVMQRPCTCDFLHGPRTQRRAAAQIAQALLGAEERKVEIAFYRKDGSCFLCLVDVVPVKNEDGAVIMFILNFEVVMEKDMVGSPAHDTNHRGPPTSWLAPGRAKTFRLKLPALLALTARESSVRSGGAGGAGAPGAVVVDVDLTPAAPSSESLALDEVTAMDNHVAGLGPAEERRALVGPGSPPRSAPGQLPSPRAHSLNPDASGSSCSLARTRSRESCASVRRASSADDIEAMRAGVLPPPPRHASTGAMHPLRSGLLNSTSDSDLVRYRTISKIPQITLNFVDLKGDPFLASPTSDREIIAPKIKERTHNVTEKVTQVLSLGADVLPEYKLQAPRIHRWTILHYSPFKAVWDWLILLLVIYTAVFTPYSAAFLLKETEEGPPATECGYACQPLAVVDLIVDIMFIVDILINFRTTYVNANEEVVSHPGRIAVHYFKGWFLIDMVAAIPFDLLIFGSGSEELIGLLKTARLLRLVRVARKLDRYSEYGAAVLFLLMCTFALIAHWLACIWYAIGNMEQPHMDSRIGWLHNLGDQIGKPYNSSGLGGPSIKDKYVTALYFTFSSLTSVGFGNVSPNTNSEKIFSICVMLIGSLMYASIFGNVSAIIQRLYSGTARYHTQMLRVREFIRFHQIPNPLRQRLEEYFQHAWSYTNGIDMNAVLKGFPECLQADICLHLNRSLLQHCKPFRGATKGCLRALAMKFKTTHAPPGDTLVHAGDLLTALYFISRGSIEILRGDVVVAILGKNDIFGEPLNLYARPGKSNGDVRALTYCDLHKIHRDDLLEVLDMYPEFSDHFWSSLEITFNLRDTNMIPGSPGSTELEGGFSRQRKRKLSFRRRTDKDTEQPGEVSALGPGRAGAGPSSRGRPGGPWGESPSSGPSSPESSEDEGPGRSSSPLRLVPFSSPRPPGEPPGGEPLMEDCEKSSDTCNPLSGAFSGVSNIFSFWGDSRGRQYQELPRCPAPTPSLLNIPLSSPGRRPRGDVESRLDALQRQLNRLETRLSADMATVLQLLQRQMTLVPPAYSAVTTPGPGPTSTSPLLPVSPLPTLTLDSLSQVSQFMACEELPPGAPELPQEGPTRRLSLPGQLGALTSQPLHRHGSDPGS
Consider `CC(C)(C)c1ccc(-c2noc(CCC(=O)NCc3ccco3)n2)cc1`, for which the “hERG current change (%, negative = inhibition) at 1uM” value is recorded as 6.44%.
With `CN(CC1CCCO1)S(=O)(=O)c1ccc(C(=O)Nc2nccs2)cc1` (stereo not drawn), the “hERG current change (%, negative = inhibition) at 1uM” value is 0.708%.
The same measure for `CC(NC(=O)C1CC1)C(c1cccs1)N1CCN(c2ccccc2)CC1` (stereo not drawn): 11.8%; for `COC(=O)[C@H](Cc1c[nH]c2ccccc12)NC(=O)NCc1ccccc1`: 10.8%.
`CCOc1ccc(N(CC(=O)Nc2ccc3c(c2)OCCO3)S(=O)(=O)c2c(C)noc2C)cc1`: the “hERG current change (%, negative = inhibition) at 1uM” value is 17%.
On to `CC(=O)NCCc1nc2cc(NC(=O)c3cccs3)ccc2n1C`, for which the “hERG current change (%, negative = inhibition) at 1uM” value is recorded as 9.61%.
The figure for `CC(C)=C1C2CCC1C1C(=O)N(c3nc(-c4ccc(C(C)C)cc4)c(C)s3)C(=O)C21` (stereo not drawn) is -6.97%; for `COc1ccc(-c2noc(N3CCC(C(=O)Nc4ccc(OC)cc4OC)CC3)n2)cc1` it is 0.99%.
The same measure for `CCn1nc(C(=O)Nc2nc3ccc(C)cc3s2)c2ccccc2c1=O`: 6.16%; for `Cc1ccccc1NC(=O)Cc1nc(COC(=O)c2ccc(S(C)(=O)=O)c([N+](=O)[O-])c2)cs1`: 4.02%.
As to `CCC1=C(C)C(N2CCOCC2)=NP(N2CCOCC2)(N2CCOCC2)=N1`, the “hERG current change (%, negative = inhibition) at 1uM” value amounted to 9.68%.
On to `CCN1CCN(C(=O)C2CCCN(S(=O)(=O)c3cc(Cl)ccc3Cl)C2)CC1` (stereo not drawn), for which the “hERG current change (%, negative = inhibition) at 1uM” value is recorded as 3.07%.
The figure for `CC1(C(=O)O)CCC(C(=O)Nc2cccc(F)c2)C1(C)C` (stereo not drawn) is 2.32%; for `COc1ccccc1Oc1coc2c(CN3CCOCC3)c(O)ccc2c1=O` it is 3.02%.
On to `O=C(c1ccc2c(=O)n(CC3CCCO3)c(=S)[nH]c2c1)N1CCN(c2ccccc2)CC1` (stereo not drawn), for which the “hERG current change (%, negative = inhibition) at 1uM” value is 3.81%.
The figure for `O=C(Nc1ccc(N2CCOCC2)cc1)C1CCCCC1` is 7.01%; for `N#Cc1ccc(S(=O)(=O)NC2CCN(Cc3ccccc3)CC2)cc1` it is -5.66%; for `Nc1nccnc1C(=O)OCC(=O)C12CC3CC(CC(C3)C1)C2` it is -0.801%.
The figure for `Cc1cc(C)c(S(=O)(=O)NCc2ccncc2)c(C)c1` is 5.64%.
On to `COc1ccc(OC)c(CN2CCN(S(=O)(=O)c3ccccc3)CC2)c1`, for which the “hERG current change (%, negative = inhibition) at 1uM” value stood at 10.6%.
The figure for `COc1ccc(Cn2c(N)c(C(=O)NCc3ccco3)c3nc4ccccc4nc32)cc1OC` is 5.43%; for `Cc1ncc([N+](=O)[O-])n1CCOC(=O)c1ccc(Cl)cc1Cl` it is -4.3%; for `NC(=O)C1CCCN(Cc2ccc(Cl)cc2)C1` (stereo not drawn) it is 8.74%.
On to `CC1(C)Cc2c(c(N3CCCC3)nc3sc4c(N5CCNCC5)ncnc4c23)CO1`, for which the “hERG current change (%, negative = inhibition) at 1uM” value amounted to 7.71%.
The same measure for `COc1ccc(NC(=O)c2noc(C(C)C)c2[N+](=O)[O-])cc1`: 13.6%; for `O=C(O)c1ccc(Cl)cc1Nc1nc2cc(Cl)ccc2o1`: 17.4%.
The figure for `CC(C)(C)CC(=O)Nc1nnc(SCC(=O)N2CCCCC2)s1` is 13.9%; for `Cc1ccc(NC(=O)CSc2nnnn2C)cc1S(=O)(=O)N(C)C` it is 6.72%.
The figure for `CCC(C)(C)C1CCC(NC(=O)c2ccc(S(=O)(=O)N3CCOCC3)cc2)CC1` (stereo not drawn) is 9.12%.
With `COc1ccc(-n2nc(C(=O)N3CCC(N4CCCCC4)CC3)c3c4ccccc4n(C)c3c2=O)cc1`, the “hERG current change (%, negative = inhibition) at 1uM” value is 14%.
In the case of `COCCNC(=O)C(c1ccc(O)cc1)N(Cc1ccco1)C(=O)CCC(=O)Nc1ccccn1` (stereo not drawn), the “hERG current change (%, negative = inhibition) at 1uM” value was found to be 17.3%.
The same measure for `O=C(COC(=O)CCC(=O)c1cccs1)NCc1ccc(Cl)cc1`: 7.78%.
With `O=C(CSc1nccn1Cc1ccc(F)cc1)NC1CCCC1`, the “hERG current change (%, negative = inhibition) at 1uM” value is reported as 9%.
The figure for `COc1ccc(OC)c(NC(=O)CSc2nccn2Cc2ccco2)c1` is 11.9%.
The same measure for `CN1CCN(C(=O)/C=C\C(=O)O)CC1`: 3.44%.
The same measure for `C=CCSc1nc(Cc2ccc(Cl)cc2)nc2ccccc12`: 4.6%; for `CC(C)n1nnnc1SCC(=O)N1CCN(C(=O)c2ccco2)CC1`: 7.08%; for `O=C(NC(=S)N1CCN(CCO)CC1)C12CC3CC(CC(C3)C1)C2`: 8.73%.
As to `Cc1ccc(-c2[nH]c3cc(C(=O)NCCCn4ccnc4)ccc3c(=O)c2O)cc1`, the “hERG current change (%, negative = inhibition) at 1uM” value was 11.2%.
On to `CCOC(=O)C(NCc1ccc2c(c1)OCO2)(NC(=O)CC)C(F)(F)F` (stereo not drawn), for which the “hERG current change (%, negative = inhibition) at 1uM” value is listed as 9.65%.
Consider `CCCCc1nc2cc(C(=O)N3CCC(OCCOC)CC3)ccc2o1`, for which the “hERG current change (%, negative = inhibition) at 1uM” value was -1.54%.
The figure for `Cc1ccc(C2=NS(=O)(=O)N(C)C(C(=O)NC3CCCC3)=C2)cc1` is 1.97%; for `COc1cc(/C=N/NC(=O)CC(=O)NC2CCCCC2)ccc1O` it is 16.9%; for `Cc1ccc(N2C(=O)CC(N3CCSCC3)C2=O)c(C)c1` (stereo not drawn) it is 10.5%.
The same measure for `Cc1cc(C)n(-c2ccc(C(=O)Nc3ccc4c(c3)OCCO4)cc2)n1`: -1.22%; for `Cc1ccc([N+](=O)[O-])cc1NC(=O)CSc1nncc2ccccc12`: 6.99%; for `N/C(=N\OC(=O)Nc1ccccc1)c1cccc(C(F)(F)F)c1`: 21.4%.
The figure for `COc1ccc(C(=O)Nc2ccc(S(=O)(=O)N3CCCCC3)cc2)cc1OC` is -0.152%; for `O=C(O)Cc1sc(Nc2ccccc2)nc1-c1cccs1` it is 16.4%.
For the compound `CCOc1ccc(C(c2c(O)nc(SC)n(C)c2=O)c2c(O)nc(SC)n(C)c2=O)cc1`, the “hERG current change (%, negative = inhibition) at 1uM” value was 8.22%.
The figure for `CC(=O)c1ccc(S(=O)(=O)NC2CC(=O)N(c3ccc4c(c3)OCCO4)C2)cc1` (stereo not drawn) is 13.3%; for `Cc1csc(NC(=O)CCC(=O)N(CC(=O)NC2CCCC2)c2ccccc2)n1` it is 9.57%; for `CCc1ccc(S(=O)(=O)NC2CCCCNC2=O)cc1` (stereo not drawn) it is 13%.
For `CCc1ccc(N(CC(=O)Nc2ccccc2C(=O)N2CCOCC2)S(C)(=O)=O)cc1`, the “hERG current change (%, negative = inhibition) at 1uM” value is given as 8.28%.
The same measure for `Cc1ccc(CONC(=O)c2ccc(OC(F)F)cc2)cc1`: 9.48%; for `O=C(Nc1ccc(F)cc1)C1CCCN(S(=O)(=O)c2cccc3cccnc23)C1` (stereo not drawn): -3.05%; for `Cc1ccc(NC(=O)CN2CCCCCC2)cc1[N+](=O)[O-]`: 8.37%.
As to `COc1ccc(OC)c(C2=CC(=O)C[C@H](c3ccc4c(c3)OCO4)C2)c1`, the “hERG current change (%, negative = inhibition) at 1uM” value is -2.03%.
The figure for `O=C(NCCc1ccccc1)c1ccc(CS(=O)(=O)c2ccc(Cl)cc2)o1` is 5.28%; for `O=C(CCC1COc2ccccc2O1)NCc1ccccc1` (stereo not drawn) it is 4.8%.
Regarding `CC(C)(C)C(=O)N1CCN(c2ccc([N+](=O)[O-])c(NCc3cccnc3)c2)CC1`, the “hERG current change (%, negative = inhibition) at 1uM” value was -11.5%.
The same measure for `COc1ccc2[nH]c3c(c2c1)CCNC3(C)CCc1ccc(Cl)nc1` (stereo not drawn): 3.73%; for `CCc1ccccc1NNC(=O)c1snnc1C`: 1.7%; for `COc1cc(C=O)ccc1OC(=O)N1CCOCC1`: 15.4%.
In the case of `OC(Cn1nnc2ccccc21)Cn1c(C(F)(F)F)nc2ccccc21` (stereo not drawn), the “hERG current change (%, negative = inhibition) at 1uM” value turned out to be 13.5%.
For `Cc1ccc(S(=O)(=O)Nc2cc(C)cn(Cc3ccc(F)cc3)c2=O)cc1`, the “hERG current change (%, negative = inhibition) at 1uM” value turned out to be 4.87%.
Regarding `O=C(NCc1ccco1)/C(=C/c1ccc(Cl)cc1)NC(=O)c1ccco1`, the “hERG current change (%, negative = inhibition) at 1uM” value is reported as 4.25%.
For `O=C1CC(c2ccccc2)C(C(=O)O)N1` (stereo not drawn), the “hERG current change (%, negative = inhibition) at 1uM” value is given as 12.1%.
Turning to `Nn1c(SCc2cccc(Br)c2)nnc1-c1ccncc1`, the “hERG current change (%, negative = inhibition) at 1uM” value is 7.48%.
The figure for `O=C(NCc1ccccc1)/C(=C/c1ccc(OC(F)F)cc1)c1ccccc1` is 14%.
The same measure for `O=C(NNc1ccccc1[N+](=O)[O-])Nc1ccc(Cl)c(Cl)c1`: 14.2%.
The same measure for `Cc1cc(C(=O)N2CCc3c([nH]c4ccccc34)C2c2c(F)cccc2Cl)no1` (stereo not drawn): 8.86%; for `C#CCOCOCC#CCN(CC)CC`: 2.27%; for `Cc1ccc(S(=O)(=O)N2CCOCC2)cc1C(=O)N1C(=O)c2cccc(N)c2C1=O`: 13.6%.
With `COc1cccc(CCc2nnc(CCC(=O)N3CCN(Cc4ccccn4)CC3)o2)c1`, the “hERG current change (%, negative = inhibition) at 1uM” value is 10.2%.
For `CCSc1nnc(NC(=O)c2csc(C)c2)s1`, the “hERG current change (%, negative = inhibition) at 1uM” value is given as 3.99%.
The figure for `COc1cc2c(C(=O)N(C)c3cc(Cl)ccc3OC)cn(C)c(=O)c2cc1OC` is 11.8%; for `CN1CCOC(c2ccccc2)c2ccccc2C1.Cl` (stereo not drawn) it is 13.8%.
On to `O=C1CCc2cc(S(=O)(=O)Nc3ccccc3Cl)ccc2N1`, for which the “hERG current change (%, negative = inhibition) at 1uM” value is on record as 0.625%.
Consider `CCN(CC)C(=O)Oc1ccc(Br)cc1C(=O)Nc1ccc(F)cc1F`, for which the “hERG current change (%, negative = inhibition) at 1uM” value was found to be 11.4%.
Regarding `Cc1c(O)ccc2c(CN(C)Cc3ccccc3)cc(=O)oc12`, the “hERG current change (%, negative = inhibition) at 1uM” value was 11.4%.
Regarding `N#Cc1nc(-c2ccc(Cl)cc2)oc1NCc1ccco1`, the “hERG current change (%, negative = inhibition) at 1uM” value is recorded as 18.1%.
The figure for `O=C1NC(=O)N(c2ccccc2F)C(=O)/C1=C/c1ccc(Sc2nc3ccccc3[nH]2)o1` is -0.511%.
The same measure for `C#CCOCCOCCOCCNc1nc(N2CCN(C(=O)Cn3cc(CC(C)O)nn3)CC2)nc(N2CCN(C(=O)[C@H]([C@@H](C)CC)n3cc(CCC[NH+]=C(N)N)nn3)CC2)n1.[Cl-]` (stereo partly drawn): 9.93%; for `O=[N+]([O-])c1ccc(-c2nc(=S)c3c(o2)CCCC3)cc1`: 3.32%; for `CC(=O)c1cnc2cc(-c3ccccc3)nn2c1C`: -10.2%.
The figure for `Cc1oc(C(=O)Nc2ccc(C(=O)O)cc2)cc1COc1ccccc1` is 3.43%.
